This note sets out measurements from article doi:10.1101/241067 (bioRxiv, 2017).

The data set deals with the molecule itself. The experiment in a line: cryo-EM structure.

B1: Cep3ΔN ([…]) (domain or fragment)
chain: not shown
On to B1, for which the binding result is reported as “binds”.
